# Laboratory results from the supplement of paper PMC3334620.
# Whole data set: some 33,000 sequences, median “E-score (-0.5 to 0.5)” near -0.041, cut for the highest 2% near 0.37. The list shows a part of the results.
# Biological target: T1, Ecm22 (UniProt Q05958)
# T1 sequence: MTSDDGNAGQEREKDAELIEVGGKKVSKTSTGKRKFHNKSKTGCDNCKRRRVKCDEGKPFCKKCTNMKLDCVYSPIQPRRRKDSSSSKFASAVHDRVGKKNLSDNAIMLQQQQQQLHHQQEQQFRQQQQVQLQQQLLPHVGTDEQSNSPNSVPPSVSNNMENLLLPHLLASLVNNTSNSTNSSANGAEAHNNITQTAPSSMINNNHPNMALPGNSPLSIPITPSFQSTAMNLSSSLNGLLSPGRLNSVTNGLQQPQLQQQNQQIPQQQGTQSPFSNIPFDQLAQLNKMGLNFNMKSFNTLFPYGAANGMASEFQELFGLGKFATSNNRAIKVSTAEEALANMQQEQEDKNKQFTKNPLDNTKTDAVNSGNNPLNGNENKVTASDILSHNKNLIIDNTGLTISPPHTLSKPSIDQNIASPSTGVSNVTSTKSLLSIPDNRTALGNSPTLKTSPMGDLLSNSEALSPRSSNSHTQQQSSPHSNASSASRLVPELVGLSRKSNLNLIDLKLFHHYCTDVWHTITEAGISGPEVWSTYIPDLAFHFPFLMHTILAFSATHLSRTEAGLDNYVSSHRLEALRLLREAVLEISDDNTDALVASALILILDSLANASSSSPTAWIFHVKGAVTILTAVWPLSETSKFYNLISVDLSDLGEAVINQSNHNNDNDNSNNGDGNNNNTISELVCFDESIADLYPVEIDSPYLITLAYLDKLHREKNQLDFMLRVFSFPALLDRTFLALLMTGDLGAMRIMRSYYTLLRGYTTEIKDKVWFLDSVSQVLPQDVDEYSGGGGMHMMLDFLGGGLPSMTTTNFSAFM
# Experiment: PBM E-score (8-mer binding enrichment) (E-score (-0.5 to 0.5)); higher = stronger / more preferred TF binding; most listed sequences are background and not binding sites
# Conditions: protein concentration: 200 nM; construct: GST-full length
# In short: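 The E-score, a modified Wilcoxon-Mann-Whitney statistic, was computed by the Universal PBM Analysis Suite for every ungapped eight-base word pooled with its reverse complement. Scans behind it were normalised with masliner after bound GST-tagged yeast transcription factors were detected with fluorescent anti-GST. The proteins, at about 100-200 nM, had been applied to universal all-10-mer Agilent arrays made double-stranded by primer extension.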
row,Sequence,PBM E-score
1,GCTTAAAC,0.252
2,CCGCATAG,0.0973
3,CTCGCCAA,0.148
4,ATTCCGTA,0.284
5,ATCACCGG,-0.234
6,ATTTGGTG,-0.217
7,ACCATGTA,-0.123
8,CATTACTC,-0.0965
9,AGGAGCAG,-0.223
10,GTAATGAA,-0.109
11,AAACCATT,-0.279
12,ATGTGCCC,-0.108
13,CCTGAGTC,-0.0512
14,GAGAACGC,0.117
15,AAACTCGA,0.00475
16,CTGCTCGA,-0.0938
17,ACCATATG,-0.247
18,TAGCCCCA,-0.188
19,AGGTCCAG,0.0166
20,CAGAAGAC,-0.11
21,CGCGTGCC,0.0483
22,CTAAGGAA,0.111
23,GTGAGGCA,-0.0698
24,CCCCCTCC,-0.275
25,ACACATGG,-0.138

row,Sequence,PBM E-score
1,AAGTCCCT,-0.283
2,TCCCCTCA,-0.281
3,GGAGAAGA,-0.239
4,CTTTGCTA,-0.111
5,CGCCGTAA,0.26
6,GCGTTTAC,0.227
7,CCTGCACG,-0.124
8,AAGGTAGC,-0.175
9,ATGCTACA,-0.136
10,CTATTGAC,-0.135
11,CGTAAGAA,0.301
12,AGAGCTGC,-0.258
13,GATAATCC,-0.0229
14,AGTATAGC,0.0261
15,AGCGTTCG,0.092
16,ATAGGGCG,-0.0213
17,ATAAGCCA,-0.134
18,CGCCCACA,-0.138
19,ACAGGTGG,0.0303
20,AGTGCGTC,-0.111
21,CGCGTACA,0.269
22,GACCATAA,0.154
23,TAAAGGAA,0.0949
24,CGTAGACC,0.0828
25,GATTGTCC,0.0499

row,Sequence,PBM E-score
1,GCTCACGA,0.0843
2,CCGCCGGA,-0.173
3,AACCAAGC,-0.104
4,ATGCGTGA,-0.00845
5,ATGCTGTC,-0.106
6,AACCACGC,0.0409
7,ACAGTTAC,-0.0878
8,CTATGGTA,-0.0556
9,CGGTCGGA,0.0409
10,ACAATATC,0.041
11,ACACTAAC,-0.0602
12,CACACCCA,0.173
13,ACTAGTGC,-0.178
14,ATTTTTGG,-0.307
15,CGATAGAC,-0.00215
16,GTCTCCAA,-0.0632
17,CCGACGTA,0.208
18,CCTCCTAC,-0.294
19,GTACTAAA,0.229
20,CCCCGGAC,-0.121
21,CACCCGGA,0.0338
22,CCACTCAG,-0.306
23,CTTACAGC,-0.147
24,CAACGGAG,-0.0525
25,ATCGCCCC,-0.0764

row,Sequence,PBM E-score
1,CTTACTAC,0.118
2,CAGGACTG,-0.233
3,GGAGGGAC,-0.101
4,TCCCTCGA,-0.0263
5,CGAACGCG,0.198
6,GCAACTAA,0.0306
7,CGTTTCGC,0.312
8,AGTAAACA,0.0411
9,AGGCCTCA,-0.335
10,CAAGAAGC,0.0176
11,GTCGTCTA,0.183
12,ACTAACGA,0.264
13,CGTCGTGA,0.117
14,GCCCCGCC,-0.0475
15,CCTTCATA,-0.0479
16,AGGGGACT,-0.258
17,GTGCGCAA,-0.0309
18,GAGTTAGC,0.0305
19,ACCTTTGG,-0.304
20,GAAGCCCC,-0.00105
21,GAAATACC,0.0229
22,AGGCAGGG,-0.0924
23,AGGAGAGG,-0.231
24,CAGCGAGC,0.125
25,ATAGGAAT,-0.00546

row,Sequence,PBM E-score
1,CAGCATGG,-0.0597
2,ATATGACC,-0.0946
3,CTTCATGA,-0.158
4,ACGCACCC,-0.096
5,CTACGTTC,0.182
6,ATCAGAAT,-0.0284
7,CTCTGTAC,0.0079
8,GAACGCTC,0.0973
9,AGCCCGCC,-0.00591
10,AGCAATCA,-0.0791
11,AATAATTC,0.0898
12,ATCCCTGC,-0.313
13,AAATTAGG,-0.0791
14,AGGACTAC,-0.186
15,ACCCAGAA,-0.182
16,GCCTCTGA,-0.28
17,AAGAGTCC,-0.296
18,ATTTAGGA,0.0407
19,CAGGCACC,-0.068
20,ATAATGAA,0.15
21,CTCGTCAG,0.104
22,CCGCTCTC,-0.165
23,ACATGCCA,0.096
24,CGCCTTGC,-0.344
25,TGACGTAA,0.0171

row,Sequence,PBM E-score
1,AGGATTTG,-0.0619
2,CGTCTTAG,-0.197
3,ATAGCAGG,0.0413
4,AACTCAGG,-0.194
5,CGCTGTAG,-0.136
6,ACGCGGAG,0.0454
7,CGGTCCCC,0.0268
8,GACCAGAC,-0.0282
9,AGGAGATA,-0.144
10,GGGCCGTA,0.333
11,CTACGCAG,0.0099
12,CGTCTGGC,-0.0912
13,ATCGCAGC,0.088
14,GCTGTAAA,-0.0512
15,AAACGGGG,0.361
16,ATACACAA,0.221
17,CCGGCAGC,-0.288
18,AGGCTCCG,0.1
19,GAATTTAA,0.122
20,GTCGCCAA,0.0425
21,TCACAACA,0.0665
22,AGGTACAG,-0.185
23,AGTGGCTC,0.153
24,CATCTGTA,-0.0867
25,AAGAACTA,-0.077

row,Sequence,PBM E-score
1,CACCAACA,-0.158
2,GATATTGA,-0.14
3,TCGAGTCA,-0.147
4,TAGAAACA,-0.0127
5,ATATGACA,0.109
6,CTACCACA,-0.265
7,ATGTTGGG,-0.353
8,CATGGCGA,-0.136
9,CCACTCAA,0.0203
10,CCGCCTGC,-0.129
11,GGGGGAGA,-0.222
12,ATTCGACA,0.0989
13,AGCCGCGG,0.19
14,AGGACGGC,-0.114
15,ACACCTTC,-0.0274
16,GCTAGGCA,-0.326
17,AGGAAGGA,-0.274
18,CGGGTTCC,0.1
19,AACTGAAC,0.157
20,TACAGCAA,-0.0019
21,AACCCTTA,-0.00342
22,CCAGCTGA,-0.24
